For 167 variants, self-cleavage results are on record in the RNAGym collection of RNA variant scans (doi:10.7554/elife.90254).

Read counts are not given, so values of variants with three or more changes are uncertain.

The labels stand for the following.
B1: LINE1-mini (parent)
chain: GGCAGAGCUCAACACAGCGUGGCAAAGUGGCUGUGGCUAGACUGCC

Variants of B1 are the subject of the data set. Kind of data set: self-cleavage, relative activity (ratio to wild type); higher = more cleavage; in vitro, sequencing; the parent is a self-cleaving ribozyme.
As to G2U C8A G17A C45A, the self-cleavage amounted to 0.01.
As for G2U U20G G22U A26U C42A G44C, the figure is 0.04; as for G2U C13U C15U G17A A24C, 0.03.
For the variant G2U G7U C46U, the self-cleavage stood at 0.04.
As for G2U C8U U38C C42U, the figure is 0.01; as for G2U G19A C37U, 0.07; as for G2U G5C U32G C37G A39C, 0.01.
Then G2U G5U C8G U28A C31A, with 0.02; and C3A A6G A16C G44C, with 0.02; and C3A A25G U34G U43C, with 0.04.
On to G2U C23G A41C U43A, for which the self-cleavage was 0.01.
As for G2U U9A C31U C42A G44U, the figure is 0.01; as for G2U U34G G40U, 0.08; as for C3A A16C U20G G44A, 0.17.
For G2U G22A G35U, the self-cleavage worked out at 0.15.
As for G2U C10A A16U U43A, the figure is 0.
As for G2U G5C C13U A26U A41U G44A, the figure is 0; as for G2U G35A C45U, 0.02.
As for G2U C23U G30A, the self-cleavage came to 0.08.
As for G2U C10A U20C A26C, the self-cleavage amounted to 0.04.
Then G2U G19C G33U, with 0.01; and G2U G19C G29C U32G, with 0.06.
As for C3A A26U G30C G40C, the figure is 0.2.
Then G2U U20A G33A U38C C42A, with 0; and G2U G22U G33A U43C, with 0.07; and G2U G21U U32A G40U, with 0.2.
Take G2U C15U G29A G36A G44C: the self-cleavage turned out to be 0.13.
Then G2U G22A C37A G44U, with 0.08.
Then C3A C8U C18A G22A G30U U43A, with 0.32; and G2U G5C G19C, with 0.03.
As for C3A A6C U34C, the figure is 0.16.
Turning to C3A A14G G21A A25G G33U, the self-cleavage was determined as 0.03.
As for G2U C8G A25C, the figure is 0.03; as for G2U G29U C42A, 0.15; as for C3A A11U G19C G33U U43C G44A, 0.04.
As for G2U U9G C13U C18G C45A, the figure is 0.02; as for C3A A11U A26C, 0.12.
Then G2U G19C A26C, with 0.04.
C3A A4U A6C A11U G21A: the self-cleavage was found to be 0.03.
As for G2U G21A C37G, the self-cleavage came out at 0.07.
As for G2U G36C C37U U38G C42A, the figure is 0.02.
As for G2U C10U G30U U34C G35C G36A, the figure is 0; as for G2U C23U U43C C46A, 0.02.
On to G2U C8G A25G U28C, for which the self-cleavage was 0.1.
As for G2U G5A A24C A25C G33A U38G, the figure is 0.01; as for G2U C10A C23U C37G G40U, 0.01.
Take G2U C18A C23A: the self-cleavage is 0.05.
For C3A A6C C8U, the self-cleavage is 0.15.
Regarding G2U U9A A11U G17U C18A C46A, the self-cleavage was determined as 0.01.
Then G2U G7A U9G, with 0.03; and G2U C13G C18G, with 0.01; and G2U C8G G22U G27A, with 0.02.
As for G2U C23A A26G, the figure is 0.11; as for C3A A6C G21U, 0.2; as for G2U C10A U32C G36U, 0.
As for G2U G22A C46A, the self-cleavage was determined as 0.05.
Then G2U C37U C42G U43A, with 0; and G2U C23A G40U, with 0.01; and G2U G7A C8U A11C G35U U38C, with 0.02.
As for C3A A6U G30A G36A, the figure is 0.81.
As for C3A A6U A39U, the figure is 0.55; as for C3A A4U C18A A25G A41C C45A, 0.04.
Take G2U C8G C10A G44A C45A: the self-cleavage is 0.
Then G2U U28C U32C, with 0.03; and G2U G21C A39C, with 0.02; and G2U C10A U28A, with 0.02.
Then G2U C8G G19C, with 0.03.
Then C3A A12G U38C, with 0.03; and G2U G5C C13A A14U C46U, with 0.01; and G2U C8U A24U G33C G35U G36A, with 0.05.
Consider G2U C18A G29C U34A, for which the self-cleavage is 0.01.
In the case of C3A A4U G5A U9G G29A G36A, the self-cleavage worked out at 0.47.
Regarding G2U G22C C31A, the self-cleavage was 0.02.
C3A A12U G19U G44C: the self-cleavage came to 0.44.
C3A C8G G17A: the self-cleavage came out at 0.19.
Then C3A A24C C45U, with 0.1; and G2U G5A A14U G35A, with 0.1; and G2U G22U C23G U34A G44C, with 0.09.
Then G2U C10G A14G C15G, with 0.02; and C3A C10A G30U C31U U32A C45G, with 0.02.
Then G2U C8U C46G, with 0.03.
As to C3A C8U G22U, the self-cleavage turned out to be 0.39.
Then G2U G5C A11U A26U G36U, with 0.02.
As for C3A C8A C15G G19U, the figure is 0.09; as for C3A C8A C31U, 1.12; as for G2U C3U U20A U43A, 0.02.
As for C3A A4U G36A A41G, the figure is 0.25; as for C3A C10U A12C A24U G33A, 0.02; as for C3A A12U C15A, 0.23.
With G2U C8A C10G, the self-cleavage amounted to 0.03.
Then C3A C8G G36A U43C C45A, with 0.01.
Then G2U C13U G19A G22U U32C A41G, with 0.02; and G2U U28A G30A U38A, with 0.05.
Then C3A A4U A12G C13U C31U U34C C46G, with 0.02.
For the variant C3A A12U C13A, the self-cleavage amounted to 0.55.
Then G2U C15U C42A, with 0.2; and G2U C10A C18U A25U, with 0.01.
On to C3A A11C C46U, for which the self-cleavage was 0.02.
Consider C3A A16U C18U C31A C37A, for which the self-cleavage is 0.73.
Then G2U G21A U32C G35A, with 0.03; and C3A A4U C15A G29U G44C, with 0.24; and G2U C13A G22C C42U, with 0.06.
As for G2U G22C U28C G29C G36C, the self-cleavage is 0.
Then G2U G22A G27U A39U, with 0.02.
Then G2U G35U G36C G44A, with 0.01; and C3A C10U A14C C23U G27C, with 0.02.
Then C3A C8G A11U, with 0.05.
Turning to G2U U20A G22A C23U, the self-cleavage is 0.14.
As to C3A A4G A6C C8A A14C G17C C31A G36C, the self-cleavage worked out at 0.05.
Then G2U G19C G22U, with 0.27; and C3A A4U G22A A25U G36C, with 0.62; and C3A A24C C37U, with 0.11.
As for G2U C13A A14U C37A C42A C46A, the figure is 0.09; as for C3A C10G C13A U28A, 0.03.
G2U C31U C46U: the self-cleavage came to 0.01.
Take G2U C31U C46A: the self-cleavage was determined as 0.04.
As for G2U G30U A41U, the figure is 0.11; as for G2U G36A G40A G44C, 0.1; as for C3A A12U G17C U20A A25U, 0.07.
Then C3A C10A U32A U38C, with 0.03; and G2U C15A A26U, with 0.03.
Turning to C3A A14G C31A, the self-cleavage turned out to be 0.16.
Then C3A A11C C13A, with 0.05; and G2U C8G A24G U34G, with 0.07.
As for G2U C37G U38A, the figure is 0.18; as for G2U C13G C15U, 0.03; as for G2U G7C C42A C46U, 0.1.
Regarding G2U C8A C23A G29A U34C C42G, the self-cleavage was 0.12.
G2U G5U A26U: the self-cleavage is 0.03.
As for C3A A6G C18G, the self-cleavage worked out at 0.07.
As for G2U G17U G21A, the figure is 0.01; as for C3A C8U C31U, 0.45; as for G2U U9C C18G U43C, 0.01.
Then G2U C10A G29A, with 0.02; and G2U C10A U28C U34A U38G, with 0.
As for G2U G27A U38C A41C, the figure is 0.01; as for C3A A12C C15U A41U C46A, 0.05.
As for G2U G7C C13U G22U U32C C37G, the self-cleavage amounted to 0.03.
As for C3A A25U G36A, the figure is 0.3; as for G2U G5U G35U, 0.02; as for C3A A11U C15A, 0.06.
Then C3A A14U C31G G33A, with 0.24; and G2U G5U C15U G22A U32A G35U, with 0.02.
Consider C3A C8A A14C U20A G29A, for which the self-cleavage worked out at 0.06.
Then G2U G19C U20G C37U, with 0.01; and C3A A6C U9C A26G, with 0.04.
G2U C8A U20C C45A: the self-cleavage came to 0.01.
Then C3A C8G C10A A14U C37A A41U, with 0.02; and C3A C8A C15U G21A, with 2.89.
Then G2U C15U G40U, with 0.11; and G2U C13A C23G G44U, with 0.01.
As for C3A C8A C15A C18U, the figure is 0.23.
Turning to C3A A11C C23A, the self-cleavage was found to be 0.06.
As for G2U U9G C18U U43C, the figure is 0.03.
Take G2U C3U A6U A11G C13G: the self-cleavage came out at 0.03.
As for C3A C10A G21A, the figure is 0.04.
As for C3A A24G A25C U28A, the figure is 0.2; as for G2U C15G U28G U34G, 0.01.
In the case of C3A A4U C31A C46U, the self-cleavage turned out to be 0.1.
As for G2U G7C A25U U32G, the figure is 0.02; as for G2U U34C C37A, 0.03.
Regarding G2U C10A C23U G40C, the self-cleavage worked out at 0.
As for G2U G30A G33U U38C, the figure is 0.02.
Take C3A A14C U32A: the self-cleavage was 0.06.
Then C3A C10G A11U G29A C42A, with 0.05.
As for G2U G5C G17C, the figure is 0; as for G2U G5U G17A A39G C42G C45U, 0.01.
